167 variants from the RNAGym collection of RNA variant scans (doi:10.7554/elife.90254) can be followed below.

The source gives no read counts; variants with many changes may rest on few reads.

The labels stand for the following.
B1: LINE1-mini (parent)
chain: GGCAGAGCUCAACACAGCGUGGCAAAGUGGCUGUGGCUAGACUGCC

In the data set the parent is B1. Nature of the data set: self-cleavage, relative activity (ratio to wild type); higher = more cleavage; in vitro, sequencing; the parent is a self-cleaving ribozyme.
With G2U C15U C18A U34A C37G, the self-cleavage was determined as 0.02.
Consider C8U C18G U28C A39G, for which the self-cleavage was 0.02.
For the variant G5C G7U A11G C46A, the self-cleavage was determined as 0.04.
For A11G G27C U34G the value was 0.01.
For G5C C13A A16U C18G G21U G33A the value was 0.01.
To U38G A41C C45G belongs 0.02.
As to C8A G17A U34G, the self-cleavage came out at 0.18.
Turning to C15G A24C G29A U34C G40A G44U, the self-cleavage was found to be 0.
To C3U G17C G40U belongs 0.14; to A6U C15U G17C C37A, 0.11.
To G19A G27C G35U belongs 0.07.
To G2U G22C A41C belongs 0.05; to C15A G19C G21A A25U G40U, 0; to A12U G19C G29U C31G G40A, 0.
A6U U9A A12G C18U U38A: the self-cleavage was determined as 0.02.
To A4G G7A C37G C45G belongs 0.22; to A11G C18A G27U G44A, 0.02; to C23A A41C C42A, 0.05.
In the case of A14C A16C G29C G30C U32C U34A, the self-cleavage came out at 0.
For A11U G35C G36A the value was 0; for G7C C10U A26C, 0.02; for C3G A25C U43C, 0.06.
For C3U G21C C31A, the self-cleavage turned out to be 0.02.
For the variant C10A A11C U32G, the self-cleavage was determined as 0.02.
To A16G C18U G33U belongs 0.16; to A16U G21C C23A A25C, 0.03; to C10A C13A C18U, 0.01.
For A25C G44U C45G the value was 0.12; for A14G C23U G30U A41G, 0.15.
To U9G G22C C46U belongs 0.09.
For the variant G21U C23G C46G, the self-cleavage is 1.82.
In the case of U28G U32A U38A, the self-cleavage worked out at 0.12.
On to C13G G29C C42U U43G G44C, for which the self-cleavage was 0.
Take C13U G21A G33U: the self-cleavage was 0.04.
For G19U G21U G29U the value was 0.36.
For the variant C13A A25G C42U, the self-cleavage amounted to 0.04.
For C3U C15A A25C the value was 0.08; for C10G G17A A24G A26U U34G G35C C45U, 0; for A4U C10A C37A C46A, 0.05.
To G2U A12G G17A G22U U28A belongs 0; to G1U C15A A25C, 0.04.
To A4G C18U G19A U43A C45U belongs 0.05; to G1A A4U A6C G19A U20C, 0.77.
As to A11U C23A G44C C46U, the self-cleavage stood at 0.02.
For G2A G7C G17C G33A C37G C42G the value was 0.05; for C15A C18A G29A G33U G35U G40U, 0.03; for G5C A6G A16G U20G C42A, 0.05.
For C15A G21C U28G the value was 0.11.
To C3A U32G C37A belongs 0.17; to C10A A11C A39U, 0.03; to U28A C37U C45A, 0.03.
Consider G1U C18U C46A, for which the self-cleavage was determined as 0.6.
For the variant A6U U9G A16C G36C C37A, the self-cleavage turned out to be 0.04.
To A26G G30U A39U belongs 0.97; to C18A G22A G35C, 0.06; to G1U U28G C45A, 0.23.
For C8U A12G A24C G27C the value was 0.03; for G1U G5C C13A G40A, 0.01; for A4U C8G A25C, 0.04.
Consider A11C G29C G30U, for which the self-cleavage was 0.01.
To G22A C42A C46U belongs 0.02.
For C13U A26C C37A G40U, the self-cleavage is 0.23.
For G5U U20C U38C A39U C45A the value was 0.01.
For A16C A26C G36U G44A the value was 0.03.
In the case of G29C C37U A39U C45G, the self-cleavage worked out at 0.04.
Consider U9A G30C G36U G44U, for which the self-cleavage amounted to 0.03.
For G5C A11C G19A G22U U28G the value was 0.01; for U9A A11C C15A G29U G30A, 0.01; for C3A U34G C42A G44C C45G, 0.09.
C10A G19U C23U G44U C45U: the self-cleavage stood at 0.
For G1U G21A C42G the value was 0.02.
For G5U G19C G21C C42A C46U the value was 0.03; for G1C A26C C46U, 0.13; for A14C G17C G22U G40A, 0.03.
On to G1A C3G G19U U20G G22U, for which the self-cleavage was 0.3.
In the case of C13A A39G A41G, the self-cleavage came out at 0.09.
To G17A U34G C46G belongs 0.01.
For C13A U28C C46U the value was 0.11; for G1U G2A G22C U28C G44U, 0.13.
For G2C C10A U20G the value was 0.02; for C15U C31A C46G, 0.15; for G5U G21C G40U, 0.04.
In the case of C8G A25C G27U C37G C45U, the self-cleavage turned out to be 0.01.
To G27A G33U G35U belongs 0.05; to G1A G5U U20G A41C, 0.1; to U28G A41G C46G, 0.07.
For the variant U9C G22C C23U C31A U38G, the self-cleavage was 0.
For G2U C10G A16G C45A the value was 0.01; for C31A G35U C42A, 0.03; for C8U C37U U38A G40C C45G, 0.08.
As for G5U A16C A25U G33A G40U, the self-cleavage turned out to be 0.03.
Consider C3A A11U G21U G27U G29C U34A, for which the self-cleavage is 0.02.
For G7U G27A G36A U43A C46A the value was 0.94; for G21C U28C C37A G44U, 0.05.
To G2A C10G C13G G29U belongs 0.04; to G5C C13A C42U, 0.04; to A26C G30A C31U, 0.82.
For G5A A14U G27C G36A G44C the value was 0.03; for A11U G17U U20A U34G G35C C37A, 0.02; for C8G C13G A25U C37A A41U, 0.03.
As to C8A C10U U20A G30U, the self-cleavage came out at 0.04.
For A6G U38C G40U the value was 0.09; for G5U G17C C37A A41C, 0.02; for G19C C23A U38G, 0.06.
For A6U G7A C10U A12U G19A C23A U38A the value was 0.01; for U20G G29C A41U C45G C46A, 0.26.
For C13U A16C U20C A39U the value was 0.01; for A12C G29C C31G, 0.01; for C18A G36U C37U, 0.04.
Regarding G5U C15G U34G C46A, the self-cleavage came to 0.02.
As for C18A G29C U32A C45A, the self-cleavage turned out to be 0.01.
To G19U G29A A39U C42A belongs 0.21.
For C8G U9A G22C the value was 0.17.
For C10U G33A A39G the value was 0.02.
Turning to A12C C13U G33A G40U, the self-cleavage worked out at 0.
To C18U C23A U43A C45U belongs 0.05; to A6C C10A A12C A26C U34C, 0.01.
For A4C A24U U38A the value was 0.04.
For A4U G19U G29U the value was 0.14; for C10A G17A C23G C31U C42G, 0.01.
A16C U32C C42U: the self-cleavage stood at 0.02.
To C3A C10A G36U belongs 0.03.
As for G7U G27A G36A, the self-cleavage was 0.04.
For U32C G40U C46G the value was 0.08; for G5C G7U A24U C31A, 0.01.
For A6U A12C A16C C18A A24C U43G the value was 0.06.
For C3U C37A C42U, the self-cleavage was found to be 0.09.
For A4U A14G A24G G44A, the self-cleavage is 0.
To A16C G22A U32A belongs 0.13.
To C8A A12G G22A A39G belongs 0.04; to A4G U9G C37G, 0.05.
For A4U G5A C37A the value was 0.02; for A6C G19C C23A A25G C46G, 0.64; for A14U G19A C45A, 0.47.
G21C G22A C23U G29A C45U: the self-cleavage is 0.74.
To A11U G19A G27U belongs 0.1; to C18G G19U U38C C42U, 0.04.
For C10G G33U C37U the value was 0.01.
To G19U G35C G40U belongs 0.02; to G17A G19A C31A U38G, 0.
On to A4G C18U G35C C42A, for which the self-cleavage came out at 0.04.
To G1C C3A C10A A11U A25U G35A G36U belongs 0.01; to G5A U9A C37U A41U C45G, 0.07; to C3U C8U U28A U32G, 0.17.
For U9A A16G G30U A39G the value was 0.01; for C8U C10A G29C G36C, 0.03.
For G2U A14U U20A A25U G30U C42G the value was 0.08; for G5U G21C G30A, 0.06; for G1U C13A C15U, 0.02.
Turning to C3U C8U C15A C18A U32G U38C C42A, the self-cleavage is 0.16.
To G2C G33U A41C belongs 0.05; to A14U C15U A25U, 0.17.
To G2U A6C G21U belongs 0.05; to U9A G44A C45A, 0.11.
For C13U C15G A26C the value was 0.02; for C15G G17A C23A G40A U43G, 0.
Consider C10G A12C G17C U20C C46A, for which the self-cleavage was 0.
For G21U G35U U38G G40U C42A G44U the value was 0.05; for C10U C15A U34A, 0.03.
Turning to A11U G21C C31G G33C, the self-cleavage worked out at 0.03.
For A4G A11C C13U G17A A41C the value was 0.02; for C3U G21A C23U C31A, 0.02.
To G2C U34C G36A belongs 0.14; to G5A C15A A26C C37G, 0.02; to A4U U9A C13U C46A, 0.09.
For A6C G22U U32G the value was 0.06.
Take C31A U43C C45A: the self-cleavage was 0.04.
